From the supplement of paper PMC11417369
The other results are listed elsewhere or left out.

System: PfAP2-HC AP2 domain (GST-tagged)
Assay: gcPBM binding intensity (ln(normalized median fluorescence intensity)); higher = stronger DNA binding
Summary of the method: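 GST-fused DNA-binding domains of P. falciparum, expressed in E. coli, were applied at about 25 μg on average for 1 h to an Agilent 4 × 180k array of primer-extended double-stranded 36-bp intergenic genomic probes and negative controls. Binding intensity is the highest Masliner-normalised natural-log median intensity across replicate spots of either probe orientation, measured with Alexa488 anti-GST antibody and a 488 nm scan.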

Sequence	gcPBM binding intensity (ln)
ACTCATAAAAATAGATGTACTTTAATAATTTGATTT [XGTACX_site8763]	9.48
GTACATACATAAAACACACACATATAGATTTATATA [CACACA_site6945]	10.4
AGTGTGTGTAATAAAGTGCATTAAAAATGACACGTA	10.4
ACCCACTTTTGAGGTGTGCACAATAAATTGGACATT	9.67
ATATATATTTAAACTACACACGCATATCTTAGAAAT [CACACA_site8348]	10.1
TAAGAGATATTTTATTAAATGTTTTATGAATCATGT [TGCATGCA_negctrl_site264]	9.35
AGGAAAAAAAAAATGACACACATATTTGAATTAAAA [CACACA_site1352]	9.8
TATTAATAAAAGCATTGTACAGTAATAAATAAATAA [XGTACX_site2924]	9.6
TATATATATAAACACACACACACCAAAGCGTAGCGC [CACACA_site7903]	10.4
AGCCATTAATTCTCTACACACCTTTATGTTATTTAG [CACACA_site3635]	9.89
ATATTAAAATGAAAATATAAAAAAAAAAAAAAAAAA [CACACA_negctrl_site1559]	9.01
CAATCAAATAGACACACACACACCTAAACATAAAAG [CACACA_site7322]	11.1
AAGGAAATATAATATACACACATAAGTGTACTTCTA [CACACA_site6079]	9.81
TTGTATTCATAACAACGTACATATTTTGTAACTAAA [XGTACX_site4029]	9.49
TTTCAAACAAAAAGACGTACACTGAAGTTATCCGTC [XGTACX_site8824]	9.24
ATACAAATTTATATTTCACACATTATTATATACTTA [CACACA_site6034]	9.82
TCTGAAAATTAGAAAAGTACAAAATGGTATAGGAAA [XGTACX_site4396]	9.65
TGTATTATATATGTGTGTACATATTTTTTTTTTTTT [XGTACX_site3351]	9.85
ATATATATATATAAATGTACAGGCTTATCTCTTATT [XGTACX_site1828]	9.75
AAATTATTTCAAATGTTGCACTAAAAATAAAATTAT [GTGCAC_site9460]	9.46
TTTTATCAATAAATTCGTACACATGAACTAGAGAGT [XGTACX_site5758]	9.5
TACATTCTAATAATTGCACACTGGTTATTAAAAGGA [CACACA_site1614]	9.6
TTTTTATTTATATTTCATTGAAGTTAAATTATTTTA [XGTACX_negctrl_site575]	9.41

Sequence	gcPBM binding intensity (ln)
ATTAGTATATTTCTCTGTACTTACATTAAAATATAA [XGTACX_site2217]	9.6
AATTTAATATTCATCTCTAAAGCTATAACAATTACT [CACACA_negctrl_site1079]	9.57
TCCTTAAAATATGGTTGTACGTACATCCTAGGTGTT [XGTACX_site7068]	9.55
AAAAAAAAGAAAAAAAAAAAAAAAAAAAAAAAAAAA [CACACA_negctrl_site489]	8.91
CGCACACGCAGACACACACACACATATAAATAAATA [CACACA_site7101]	10.8
GGTGAAATTATTTCTACATGCAGAAATAATTAATTA [TGCATGCA_site194]	9.48
TTTTTTTTTTTGGCTAGTACATATGTATTTAAAATG [XGTACX_site7770]	9.59
AATTTAATATAATGCACACATAAAAAAAAAATCAAA [CACACA_site1]	9.85
AAATTATTTCTTTGCGCATGTAGCTTTTATACTATT [TGCATGCA_site819]	10.3
ACATAAATAATAAAAACACACATATGTACCTATATA [CACACA_site6982]	9.85
AATACATGCTAAAAACGTACACGTATAAAATTATAT [XGTACX_site3169]	9.69
AAGAAAATATAAAATGCACACTATAAATTGTATATA [CACACA_site7928]	9.78
AAAAAAAAAAAAAATTGTACATTAAATTAAAAGAAA [XGTACX_site8708]	9.42
AAAAAAAAAAATACTTGTACTTATATAATATATTAT [XGTACX_site8333]	9.69
TGTTGTTCCAATTTTTGTACATAAAACATATATATA [XGTACX_site5719]	9.61
AATATTTATTTAATTTCACACAGGTCTTTTTTTTTT [CACACA_site5188]	9.7
TTGTTCTTATTTCATTTTTATATGATATTTCATTAT [CACACA_negctrl_site1619]	9.87
GAGAAAAGGAAATAACGTACACATATGCATATCCAA [XGTACX_site5858]	9.7
GTGTTCTTGTTATACACACACATATATATATATATA [CACACA_site1032]	10
TATTTATTGTGACACTTTTATTATTTTATGATAAAA [CACACA_negctrl_site37]	9.59
TGAAAGAAGCATAAATGTACACACATATTTATATAT [XGTACX_site2645]	9.86
GAGAGGTCAGTTCACAGTACCCAGAAACTCTACGAG [XGTACX_site2559]	9.31
